Holding throughout (experiment): Viability of human cancer cell lines after 72 h of drug (GDSC screen)
Compound in assay [1]: CCn1c(-c2nonc2N)nc2c(C#CC(C)(C)O)ncc(OC[C@H]3CCCNC3)c21 [GSK690693]
The following applies: top dose 10.24 µM; top dose inferred. The procedure:
(§1)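 Human cancer cell lines in 384-well plates, medium with 10% serum, drug for 72 h over a 256-fold dose range (nine 2-fold or five 4-fold steps up to the top dose). Adherent lines were fixed and stained with the nucleic acid dye Syto60, suspension lines read with resazurin; signal relative to control wells, capped at 0 and 100%. One two-parameter sigmoid per drug and line, fitted in a mixed model over all curves with the slope shared within a line.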

Compound in assay [2]: COc1cc2c(NC3CCN(C(C)C)CC3)nc(C3CCCCC3)nc2cc1OCCCN1CCCC1 [UNC0638]
The procedure:
as §1

Compound in assay [3]: COc1ccc(N(C(=O)Oc2c(C)cccc2C)c2ccnc(Nc3ccc(N4CCN(C)CC4)cc3)n2)c(OC)c1 [WH-4-023]
The following applies: top dose 5.12 µM; top dose inferred. The procedure:
as §1

Compound in assay [4]: CC1=C(/C=C/C(C)=C/C=C/C(C)=C/C(=O)O)C(C)(C)CCC1 [Tretinoin]
To be noted: top dose 10 µM; top dose inferred. How it is done: as §1

Compound in assay [5]: O=C(NCCCNc1nc(Nc2cccc(NC(=O)N3CCCC3)c2)ncc1I)c1cccs1 [BX-795]
To be noted: top dose 5 µM; top dose inferred. The procedure: as §1

Compound in assay [6]: Oc1cccc(-c2nc(N3CCOCC3)c3oc4ncccc4c3n2)c1 [PI-103]
To be noted: top dose 10.24 µM. The procedure:
as §1

Compound in assay [7]: Cc1cccc(-c2[nH]c(C(C)(C)C)nc2-c2ccc3c(c2)OCO3)n1 [SB-505124]
The following applies: top dose 10 µM; top dose inferred. How it is done: as §1

The mark [8] stands for this setting: top dose 20 µM, screen: GDSC drug entry 1236, top dose inferred.
The mark [9] stands for this setting: top dose 40 µM, screen: GDSC drug entry 245.

Our source for the AUC and IC50 values is the supplement of paper PMC4967469.

pIC50: −log10 of the molar value. A lower IC50 marks a more sensitive line; fits outside the tested doses are given as limits. AUC, from the same fit, is the share of area under the viability curve across the 256-fold dose range: 1 means no effect, lower means more sensitive. For some assays here: The top dose, if marked as inferred, was calculated from the reported fits. For some assays here: Drugs with an entry number were screened twice under separate entries, and the two screens often disagree.

What is called pIC50 is the negative decadic logarithm of the IC50, by convention in mol/L. For TK10 (kidney, adherent), the AUC in assay [1] worked out at 0.859; in assay [2] (setting [8]), 0.746; in assay [2] (setting [9]) it was 0.976; in assay [3] it was 0.672; in assay [4] it was 0.98; in assay [5] it was 0.874. Also, the AUC came to 0.875 in assay [6] and 0.954 in assay [7]. The pIC50 in assay [1] was less than 4.99; in assay [2] (setting [8]), 5.13; in assay [2] (setting [9]), less than 4.40; in assay [4] it was less than 5.00; in assay [5], less than 5.30; in assay [6] it was less than 4.99. Also, the negative logarithm of the IC50 (pIC50) in assay [7] is less than 5.00.
Consider TUR (B-cell lymphoma, suspension), for which the AUC in assay [1] was determined as 0.497; in assay [2] (setting [8]) it was 0.712; in assay [2] (setting [9]), 0.654; in assay [3], 0.978; in assay [4], 0.721; in assay [5], 0.676. Besides, the AUC in assay [6] came to 0.557; in assay [7], 0.979. Further, the pIC50 in assay [1] is 6.20; in assay [2] (setting [8]), 5.33; in assay [2] (setting [9]) it was 5.19; in assay [3] it was less than 5.29; in assay [4], 5.60; in assay [5], 6.03. Moreover, the pIC50 was 6.04 in assay [6] and less than 5.00 in assay [7].
Take U-87-MG (glioma, adherent): the AUC came out at 0.924 in assay [1]; 0.983 in assay [2] (setting [8]); 0.746 in assay [2] (setting [9]); 0.984 in assay [3]; 0.985 in assay [4]; 0.915 in assay [5]. In addition, the AUC in assay [6] came out at 0.661; in assay [7], 0.983. Also, the pIC50 is less than 4.99 in assay [1]; less than 4.70 in assay [2] (setting [8]); 4.84 in assay [2] (setting [9]); less than 5.29 in assay [3]; less than 5.00 in assay [4]; less than 5.30 in assay [5]. Besides, the pIC50 in assay [6] is 5.71; in assay [7], less than 5.00.
Regarding U-698-M (B-cell leukaemia, suspension), the AUC in assay [1] amounted to 0.985; in assay [2] (setting [8]), 0.8; in assay [2] (setting [9]), 0.741; in assay [3], 0.968; in assay [4], 0.981; in assay [5] it was 0.921. Besides, the AUC came out at 0.708 in assay [6] and 0.894 in assay [7]. Further, the pIC50 was less than 4.99 in assay [1]; 5.01 in assay [2] (setting [8]); 4.91 in assay [2] (setting [9]); less than 5.29 in assay [3]; less than 5.00 in assay [4]; less than 5.30 in assay [5]. Besides, the figures for the pIC50 in assay [6] and in assay [7] were 5.61 and less than 5.00, respectively.
For UACC-257 (melanoma, adherent), the AUC in assay [1] turned out to be 0.974; in assay [2] (setting [8]), 0.791; in assay [2] (setting [9]), 0.6; in assay [3] it was 0.973; in assay [4] it was 0.947; in assay [5], 0.943. Moreover, the AUC in assay [6] amounted to 0.673; in assay [7] it was 0.871. The pIC50 in assay [1] was less than 4.99; in assay [2] (setting [8]), 4.94; in assay [2] (setting [9]), 5.30; in assay [3], less than 5.29; in assay [4] it was less than 5.00; in assay [5] it was less than 5.30. For the same cell line, the pIC50 in assay [6] was 5.66; in assay [7], less than 5.00.
For the cell line VA-ES-BJ (soft tissue, adherent), the AUC in assay [1] came out at 0.986; in assay [2] (setting [8]), 0.975; in assay [2] (setting [9]), 0.922; in assay [3] it was 0.55; in assay [4], 0.98; in assay [5], 0.689. Further, the AUC in assay [6] stood at 0.645; in assay [7], 0.593. Moreover, the pIC50 in assay [1] was less than 4.99; in assay [2] (setting [8]), less than 4.70; in assay [2] (setting [9]), less than 4.40; in assay [3], 6.36; in assay [4], less than 5.00; in assay [5], 5.96. For the same cell line, the values for the pIC50 in assay [6] and in assay [7] were 5.78 and 5.94, respectively.
